According to the RNAGym collection of RNA variant scans (doi:10.1073/pnas.2313332121):
Variants at the floor of the assay are shown more often than the library holds them.

B1: TPR 5TU (parent)
chain: GGAUCUUCUCGAUCUAACAAAAAAGACAAAUCUGCCACAAAGCUUGAGAGCAUCUUCGGAUGCAGAGGCGGCAGCCUUCGGUGGCGCGAUAGCGCCAACGUUCUCAACUAUGACACGCAAAACGCGUGCUCCGUUGAAUGGAGUUUAUCAUG

Variants of: B1
Assay: polymerase ribozyme fitness, log enrichment relative to wild type (log ratio); higher = more active; in vitro selection for triplet polymerase activity
Procedure, shortened: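 To select mutant libraries of each subunit of a heterodimeric triplet polymerase ribozyme, built by PCR and transcribed, each was annealed with a biotinylated primer, partner subunit and triplets, then incubated frozen at −7 °C. Extended constructs were gel-excised, captured on streptavidin beads and amplified by RT-PCR, in one round carried out in triplicate. Illumina sequencing of input and output libraries kept genotypes with ≥10 input reads and ≥1 read per output. Fitness is the base-2 logarithm of genotype enrichment relative to wild-type enrichment, from inverse-variance-weighted replicate averages.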

Q: With U7A U102A U109G G117A as the variant, how does the “polymerase ribozyme fitness (log ratio)” value read?
A: ≤ -4.2

Q: With U7C C18A A20U A30U G48C C51U C95A U101C as the variant, how does the “polymerase ribozyme fitness (log ratio)” value read?
A: ≤ -4.2

Q: Which “polymerase ribozyme fitness (log ratio)” value does the source give for U7A G25C A26U C69A U77A C103A G143C here?
A: ≤ -4.2

Q: For U7C C72U C75A A89U U109A A119U, which “polymerase ribozyme fitness (log ratio)” value is on record?
A: ≤ -4.2

Q: For U7A A40U A47G G92C G141U, which “polymerase ribozyme fitness (log ratio)” value is on record?
A: ≤ -4.2

Q: With U6G U61A C85A C96A A121G as the variant, how does the “polymerase ribozyme fitness (log ratio)” value read?
A: ≤ -4.2

Q: For U7C A40U G71A C93G A150C, which “polymerase ribozyme fitness (log ratio)” value is on record?
A: ≤ -4.2

Q: Which “polymerase ribozyme fitness (log ratio)” value does the source give for U7A G48A G65C G100U C149U here?
A: ≤ -4.2

Q: Which “polymerase ribozyme fitness (log ratio)” value does the source give for U7G A17G A28U U31A G59C C95G C132G G140U here?
A: ≤ -4.2

Q: For U7A U78A G84U A107U U134A, which “polymerase ribozyme fitness (log ratio)” value is on record?
A: ≤ -4.2

Q: For U7A C36U C95G, which “polymerase ribozyme fitness (log ratio)” value is on record?
A: ≤ -4.2

Q: For U7A A41C C43U G71A C87U A113G C118A U127A G128A, which “polymerase ribozyme fitness (log ratio)” value is on record?
A: ≤ -4.2

Q: With U7C C8A A17G G83C A106G U139C as the variant, how does the “polymerase ribozyme fitness (log ratio)” value read?
A: ≤ -4.2

Q: Which “polymerase ribozyme fitness (log ratio)” value does the source give for U7A C93U C132G A147G here?
A: ≤ -4.2

Q: For U7C A28U C43U G62A G83A A89G U102C A115U, which “polymerase ribozyme fitness (log ratio)” value is on record?
A: ≤ -4.2

Q: For U7C C10U A40C C85A A89C G100A C116A, which “polymerase ribozyme fitness (log ratio)” value is on record?
A: ≤ -4.2

Q: Which “polymerase ribozyme fitness (log ratio)” value does the source give for U7G A20C U56G U146G here?
A: -3.82

Q: For U7C C10U A40U U53A C93G C99U, which “polymerase ribozyme fitness (log ratio)” value is on record?
A: ≤ -4.2

Q: For U7A A49U G80U G88U A115C, which “polymerase ribozyme fitness (log ratio)” value is on record?
A: ≤ -4.2

Q: For U7A C10A C51U A52G A73G C87G A138C, which “polymerase ribozyme fitness (log ratio)” value is on record?
A: ≤ -4.2

Q: Which “polymerase ribozyme fitness (log ratio)” value does the source give for U7C G48U G84A G117C here?
A: ≤ -4.2

Q: Which “polymerase ribozyme fitness (log ratio)” value does the source give for U7C C85U C87G C93G C99G A137U G140A here?
A: ≤ -4.2

Q: With U6G U53G G86C G140U U144C as the variant, how does the “polymerase ribozyme fitness (log ratio)” value read?
A: ≤ -4.2

Q: With U7C G11A G42A G46C C51G G68A C87U G88A G133C as the variant, how does the “polymerase ribozyme fitness (log ratio)” value read?
A: ≤ -4.2

Q: For U7G A12U A73C A120U, which “polymerase ribozyme fitness (log ratio)” value is on record?
A: ≤ -4.2

Q: With U7A A20U A22U C36U A52G G67U G92U U109G as the variant, how does the “polymerase ribozyme fitness (log ratio)” value read?
A: ≤ -4.2

Q: For U7A U55A G84U, which “polymerase ribozyme fitness (log ratio)” value is on record?
A: ≤ -4.2

Q: For U7A G94A C103G A150C, which “polymerase ribozyme fitness (log ratio)” value is on record?
A: ≤ -4.2

Q: With U7A C10G U55A C72U G94A U151A as the variant, how does the “polymerase ribozyme fitness (log ratio)” value read?
A: ≤ -4.2

Q: Which “polymerase ribozyme fitness (log ratio)” value does the source give for U7A A23G U33A C57U G58A G59A C76U G94U A142U here?
A: ≤ -4.2

Q: For U7C A40G C54U C76G C79U C96U C123U U135G U151A, which “polymerase ribozyme fitness (log ratio)” value is on record?
A: ≤ -4.2

Q: Which “polymerase ribozyme fitness (log ratio)” value does the source give for U7C G25A A47U U90C C95U C108G C129G U139A U144G here?
A: ≤ -4.2

Q: For U7A A16C C32G A37U C51U A52U U56A C85A, which “polymerase ribozyme fitness (log ratio)” value is on record?
A: ≤ -4.2

Q: Which “polymerase ribozyme fitness (log ratio)” value does the source give for U7A G84A A98G A110G here?
A: ≤ -4.2

Q: With U7A A29C G50U G92A as the variant, how does the “polymerase ribozyme fitness (log ratio)” value read?
A: ≤ -4.2

Q: Which “polymerase ribozyme fitness (log ratio)” value does the source give for U7C A20C A28C here?
A: ≤ -4.2

Q: With U7A A22C C85U as the variant, how does the “polymerase ribozyme fitness (log ratio)” value read?
A: -4.04

Q: With U7A G11C U56G G92U C93U C96G A119C G133C as the variant, how does the “polymerase ribozyme fitness (log ratio)” value read?
A: ≤ -4.2

Q: For U7A U44A G94C G133C G141C, which “polymerase ribozyme fitness (log ratio)” value is on record?
A: ≤ -4.2

Q: With U7C C38U C87A A122U as the variant, how does the “polymerase ribozyme fitness (log ratio)” value read?
A: ≤ -4.2

Q: With U7A C43U as the variant, how does the “polymerase ribozyme fitness (log ratio)” value read?
A: ≤ -4.2

Q: Which “polymerase ribozyme fitness (log ratio)” value does the source give for U7A G84C C132U U135C U146G here?
A: ≤ -4.2

Q: With U7C C38U A47C U82G G83C C105G U127G C132G as the variant, how does the “polymerase ribozyme fitness (log ratio)” value read?
A: ≤ -4.2

Q: Which “polymerase ribozyme fitness (log ratio)” value does the source give for U7A A19U A49U G88U G100U here?
A: ≤ -4.2

Q: With U7C G11A C27G A47G C63U C93A A110C as the variant, how does the “polymerase ribozyme fitness (log ratio)” value read?
A: ≤ -4.2

Q: For U7A U13C A17U C43A G59C C95A C103G C123U, which “polymerase ribozyme fitness (log ratio)” value is on record?
A: ≤ -4.2

Q: Which “polymerase ribozyme fitness (log ratio)” value does the source give for U7C A49G A52G G81A G84U here?
A: ≤ -4.2

Q: Which “polymerase ribozyme fitness (log ratio)” value does the source give for U7C G25U A39C G84U C85A U148A here?
A: ≤ -4.2

Q: With U7A G84A G94U U146A as the variant, how does the “polymerase ribozyme fitness (log ratio)” value read?
A: ≤ -4.2

Q: With U7C U15G A41U A52G C96A as the variant, how does the “polymerase ribozyme fitness (log ratio)” value read?
A: -3.52

Q: With U7C A17G C72U G86A C95A A97G A98U U104A A122U as the variant, how does the “polymerase ribozyme fitness (log ratio)” value read?
A: ≤ -4.2

Q: With U7A C10A C75A G88U G94U C95U G140U A142C as the variant, how does the “polymerase ribozyme fitness (log ratio)” value read?
A: ≤ -4.2

Q: For U7G A17U C51U G58C C75A C85G A115U, which “polymerase ribozyme fitness (log ratio)” value is on record?
A: ≤ -4.2

Q: Which “polymerase ribozyme fitness (log ratio)” value does the source give for U7C C27G C57G G88C G124A U134G here?
A: ≤ -4.2

Q: Which “polymerase ribozyme fitness (log ratio)” value does the source give for U7A C14G A26G G46U C95A C96A here?
A: ≤ -4.2

Q: Which “polymerase ribozyme fitness (log ratio)” value does the source give for U7C U33G C38U C85A here?
A: ≤ -4.2

Q: Which “polymerase ribozyme fitness (log ratio)” value does the source give for U7C A17G A40G U44A C79A A110C here?
A: ≤ -4.2

Q: With U7A C27A G59U G83A G94A C103G as the variant, how does the “polymerase ribozyme fitness (log ratio)” value read?
A: ≤ -4.2

Q: With U7A A19C A30U G94A C103U U104G U109G C118U as the variant, how does the “polymerase ribozyme fitness (log ratio)” value read?
A: ≤ -4.2

Q: Which “polymerase ribozyme fitness (log ratio)” value does the source give for U7C A41C C87U G126A here?
A: -3.82

Q: For U7A C14G G50C G58A G86U U102G A106U U111G U135A U148C, which “polymerase ribozyme fitness (log ratio)” value is on record?
A: ≤ -4.2

Q: For U7A U44A G67C C69G U82G C93U C114G G141C, which “polymerase ribozyme fitness (log ratio)” value is on record?
A: ≤ -4.2

Q: With U7G A23G A30U C38U C85G A119U as the variant, how does the “polymerase ribozyme fitness (log ratio)” value read?
A: ≤ -4.2

Q: With U7A G42C C54U G70C C93U as the variant, how does the “polymerase ribozyme fitness (log ratio)” value read?
A: ≤ -4.2

Q: With U7G A19C A66G G67A C93A G141C as the variant, how does the “polymerase ribozyme fitness (log ratio)” value read?
A: ≤ -4.2

Q: For U7C C79U G92U C105U, which “polymerase ribozyme fitness (log ratio)” value is on record?
A: ≤ -4.2

Q: With U7G A22U C43U C93A A142G as the variant, how does the “polymerase ribozyme fitness (log ratio)” value read?
A: ≤ -4.2

Q: For U7A A16U C51U A66G C96A C99U, which “polymerase ribozyme fitness (log ratio)” value is on record?
A: ≤ -4.2

Q: For U7C A17U U44A G83C A113G U144C, which “polymerase ribozyme fitness (log ratio)” value is on record?
A: ≤ -4.2

Q: For U7A A12C A24G A47U U90A C114U G126U, which “polymerase ribozyme fitness (log ratio)” value is on record?
A: ≤ -4.2

Q: Which “polymerase ribozyme fitness (log ratio)” value does the source give for U7G A16U A28C G62C G86U C95U A110U here?
A: ≤ -4.2

Q: With U7A C32U U61A G74U C99G as the variant, how does the “polymerase ribozyme fitness (log ratio)” value read?
A: ≤ -4.2

Q: Which “polymerase ribozyme fitness (log ratio)” value does the source give for U7A C87G A142G here?
A: ≤ -4.2

Q: With U7A A91G U145G as the variant, how does the “polymerase ribozyme fitness (log ratio)” value read?
A: ≤ -4.2

Q: For U7A A23U A47C U55G C63A U77A C87A A89U C93U C99A, which “polymerase ribozyme fitness (log ratio)” value is on record?
A: ≤ -4.2

Q: With U7A A47C G65C C76A U78G C95U C118A C131G C149A as the variant, how does the “polymerase ribozyme fitness (log ratio)” value read?
A: ≤ -4.2

Q: Which “polymerase ribozyme fitness (log ratio)” value does the source give for U7A C18A U33G A66U G84A G100A G124C here?
A: ≤ -4.2

Q: For U7G A22U A23C A52U C87U C132U, which “polymerase ribozyme fitness (log ratio)” value is on record?
A: ≤ -4.2

Q: With U7C C10G U15G G65A C85G G86U G141A U144C as the variant, how does the “polymerase ribozyme fitness (log ratio)” value read?
A: ≤ -4.2

Q: For U7G A20U G59U A60G U61A G117U C123U U145A, which “polymerase ribozyme fitness (log ratio)” value is on record?
A: ≤ -4.2

Q: With U7A C35G G46C G80C G86A C95U as the variant, how does the “polymerase ribozyme fitness (log ratio)” value read?
A: ≤ -4.2

Q: For U7A A19G C76G G86C A147C, which “polymerase ribozyme fitness (log ratio)” value is on record?
A: ≤ -4.2

Q: For U7A U13G G71C, which “polymerase ribozyme fitness (log ratio)” value is on record?
A: ≤ -4.2

Q: With U7C A23U C87A A89G A115U U134A as the variant, how does the “polymerase ribozyme fitness (log ratio)” value read?
A: ≤ -4.2
